PubChem BioAssay AID488969 (Vanderbilt High Throughput Screening Facility, 2010)
Whole data set: some 110,000 compounds, median “z-score” near -0.1, cut for the highest 2% near 2. Some of the results follow. Activity calls are given as the source filed them.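 Rule for the calls: active = z-score in the third read window above 3 or below -3; inactive = the rest.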

The compounds below were run against Metabotropic glutamate receptor 8 (Rattus norvegicus) (UniProt P70579) (assay: mGluR8 Gi/Go-coupled signaling modulation – cell-based, rat, thallium flux, HTS, primary screen (AID 488969)). Conditions: HEK293 rat mGluR8, GIRK (G protein-gated inwardly rectifying potassium channel) thallium flux, FluoZin2; at 10 µM; stronger effect = higher value; submaximal glutamate (EC20) added with thallium.
Sequence of UniProt P70579 (P70579 whole entry, looked up): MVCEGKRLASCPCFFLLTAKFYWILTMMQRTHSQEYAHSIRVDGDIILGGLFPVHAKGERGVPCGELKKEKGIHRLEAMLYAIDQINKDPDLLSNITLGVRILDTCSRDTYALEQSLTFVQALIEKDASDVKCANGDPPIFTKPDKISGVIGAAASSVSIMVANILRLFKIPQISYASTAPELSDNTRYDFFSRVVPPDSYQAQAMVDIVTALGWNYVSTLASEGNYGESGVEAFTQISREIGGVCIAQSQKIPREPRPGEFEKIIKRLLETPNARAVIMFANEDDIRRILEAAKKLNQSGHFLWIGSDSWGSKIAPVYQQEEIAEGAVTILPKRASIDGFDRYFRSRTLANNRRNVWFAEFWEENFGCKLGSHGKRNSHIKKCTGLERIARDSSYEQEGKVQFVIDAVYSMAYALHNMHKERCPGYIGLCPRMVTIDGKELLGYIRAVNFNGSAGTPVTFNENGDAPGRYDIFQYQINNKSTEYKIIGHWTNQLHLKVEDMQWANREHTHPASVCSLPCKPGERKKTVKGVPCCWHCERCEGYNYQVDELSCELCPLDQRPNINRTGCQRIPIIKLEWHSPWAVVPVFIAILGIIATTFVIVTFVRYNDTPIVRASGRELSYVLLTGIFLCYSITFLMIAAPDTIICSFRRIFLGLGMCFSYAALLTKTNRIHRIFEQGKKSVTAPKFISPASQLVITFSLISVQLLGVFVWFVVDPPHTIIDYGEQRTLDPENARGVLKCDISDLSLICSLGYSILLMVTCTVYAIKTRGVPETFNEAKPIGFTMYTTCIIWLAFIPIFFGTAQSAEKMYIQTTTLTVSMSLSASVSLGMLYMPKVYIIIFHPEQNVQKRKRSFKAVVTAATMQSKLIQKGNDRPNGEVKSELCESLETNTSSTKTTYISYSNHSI

Compound	z-score
O=C(CSc1nnc(-c2ccccc2)o1)NC1CCS(=O)(=O)C1 (stereo not drawn)	-0.148
COc1ccc(C(C(=O)OCCN(C)C)c2ccccc2)cc1 (stereo not drawn)	0.325
C=CCN1C(=O)C(C)S/C1=N\S(=O)(=O)c1ccc(Cl)cc1 (stereo not drawn)	-0.211
CCN(CC)C(=O)C(=O)c1cccn1-c1cccc(-n2cccc2C(=O)C(=O)N(CC)CC)c1C#N	0.732
O=C(NCCCN1CCOCC1)c1c(F)cccc1F	-0.474
Brc1ccc(-c2nnc(SCCC3OCCCO3)o2)cc1	0.277
Cc1ccc(-n2nnnc2-c2nc3ccccc3s2)cc1	active: 6.16
Cc1ccc(C)c(C(=O)C(C)OC(=O)c2cccn2C)c1 (stereo not drawn)	0.876
COC(=O)/C(=C\Nc1ccccc1)NC(=O)c1ccc(Cl)cc1Cl	-1.12
COc1cccc(C2CC(C(F)(F)F)n3ncc(C(=O)Nc4c(C)n(C)n(-c5ccccc5)c4=O)c3N2)c1 (stereo not drawn)	-0.249
O=C(COc1ccccc1C(=O)c1cnn(-c2ccccc2)c1)Nc1ccc2ccccc2c1	-0.194
c1cncc(CNc2nc(N3CCOCC3)nc(N3CCOCC3)n2)c1	-0.259
c1coc(CNc2nc3nonc3nc2NCc2ccco2)c1	0.514
CC(C)Oc1ccc(C(=O)Nc2ccc(C(F)(F)F)n(C)c2=O)cc1	-0.0243
CS(=O)(=O)N1CCN(c2ccc(NC(=O)C(c3ccccc3)c3ccccc3)cc2)CC1	-0.0173
CCOC(=O)c1nnn(-c2nonc2N)c1COc1cc(C)c(Cl)c(C)c1	-0.174
O=C1CC2CS(=O)(=O)CC2N1c1ccc(Cl)cc1Cl (stereo not drawn)	-0.0651
Cn1ncc(Br)c1C(=O)N/N=C/c1cccc(OC2CSC2)c1	-0.309
CC(=O)Nc1ccccc1C(=O)C(=O)O	-0.274
Cn1c(=O)c2ncn(CC(=O)NCCC3=CCCCC3)c2n(C)c1=O	0.0139
CCC(=O)Nc1ccc(Cl)c(NC(=S)NC(=O)c2cc3ccccc3o2)c1	0.019
CCc1ccc(N(C(C)=O)C2C=CS(=O)(=O)C2)cc1 (stereo not drawn)	-0.0323

Compound	z-score
COc1ccc(N2C(=O)C3CCCN3C2c2cccc(OC)c2OC)cc1 (stereo not drawn)	-0.15
C=CCC(NCc1ccccc1)c1ccco1 (stereo not drawn)	2.42
CCc1nc(SCC(=O)c2ccc(C)c(C)c2)n[nH]1	-0.453
Cn1nc(-c2ccc(C(=O)Nc3cccnc3)cc2)c2ccccc2c1=O	-0.154
Cc1ccc(C)c(NC(=O)CN(C)S(=O)(=O)c2ccccc2)c1	-0.409
O=C(c1cccc(S(=O)(=O)N2CCCC2)c1)N1CCN(c2ncccn2)CC1	0.0725
CCOP(=O)(OCC)C(NC(=O)Nc1ccc(Cl)cc1)C(=O)N(CC)CC (stereo not drawn)	-0.672
CN(C)c1ccc(C(C(=O)NC(C)(C)C)N(C(=O)c2csnn2)C2CC2)cc1 (stereo not drawn)	0.816
O=C(CN1CCC(O)(c2ccc3c(c2)OCO3)CC1)N1CCOCC1	0.605
O=C(Nc1cccc2ncccc12)c1ccc(-c2ccc(Cl)cc2Cl)o1	-0.128
CCOC(=O)C(C)(C)N(Cc1cccc(C)c1)S(=O)(=O)c1cccc([N+](=O)[O-])c1	-0.287
COc1ccc(C2CC(c3ccccc3)=NN2C(=O)COC(=O)c2cccc(S(=O)(=O)N(C)C)c2)cc1 (stereo not drawn)	-0.697
NC(=O)C1(N2CCCCC2)CCN(C(=O)c2ccc(-n3cnnn3)cc2)CC1	0.237
COc1ccc(Cn2c(-c3ccc(C)cc3)c[n+]3ccccc23)cc1	0.00664
CCn1cc(C(=O)NCc2ccc3c(c2)OCO3)c(=O)c2cc(S(=O)(=O)N3CCOCC3)ccc21	-0.791
Cc1ccc(O)c(NC(=O)COc2cc(C)ccc2C)c1	0.383
O=C(CSc1ccc(Cl)cc1)Nc1cc(-c2nc3ncccc3o2)ccc1Cl	-0.0513
Cc1ccc(-c2nc3ccccc3n3nnnc23)cc1	-0.162
CC(C)(C)c1ccc(OC(=O)c2cccnc2)cc1	-0.0737
O=C(COC(=O)CNC(=O)c1ccc(Cl)cc1)Nc1ccc(Cl)cc1C(F)(F)F	-1.14
COc1ccc(/C=C/c2ccncc2)c2ccccc12	-0.236
O=C(Cc1cccs1)Nc1ccc(NC(=O)c2ccco2)cc1	-0.0243

Compound	z-score
CN1CCN(S(=O)(=O)c2ccc(SCCOc3ccccc3)nc2)CC1	0.745
CCc1nnc(NC(=O)CCC(=O)Nc2ccccc2)s1	-0.0312
Cc1ccc(C(=O)N/C(=C\c2cccs2)C(=O)NCC2CCCO2)cc1C (stereo not drawn)	-0.226
O=c1[nH]c2cc3c(cc2cc1CN(Cc1cccnc1)Cc1nnnn1Cc1ccco1)OCCO3	-0.00904
CCOC(=O)N1CCN(C(=O)CSCc2ccccc2C)CC1	-0.152
COc1cc(OC)cc(-c2cc3nc(C4CCN(C(=O)OC(C)(C)C)CC4)cc(=O)n3[nH]2)c1	1.15
Cc1cc(N2CCN(S(=O)(=O)c3ccccc3)CC2)c2ccccc2n1	0.244
CCCCSc1nc(CCC)cc(=O)[nH]1	-0.641
O=C(CN1C(=O)NC(Cc2ccccc2)C1=O)NC(=O)NC1CCCCC1 (stereo not drawn)	-0.215
CS(=O)(=O)Nc1ccc(C(=O)Nc2ccc3c(c2)OCCO3)cc1	-0.17
COC(=O)/C=C1/S/C(=N/N=C/c2ccc(N(C)C)cc2)NC1=O	0.494
NC(=O)c1c(NC(=O)c2ccccc2)sc2c1CCc1ccccc1-2	-0.173
COc1ccccc1C(=O)Nc1ccc2c(c1)nc(CCNC(C)=O)n2C	-0.141
O=C(CSc1ccc2nnc(-c3ccc(F)cc3)n2n1)N1CCOCC1	0.672
c1ccc(-n2nnnc2Sc2n[nH]c(-c3ccncc3)n2)cc1	0.714
O=C1C2C3C=CC(C3)C2C(=O)N1CCN1CCN(S(=O)(=O)c2ccc3ccccc3c2)CC1 (stereo not drawn)	0.0243
CC1(C)CC(=O)C2=C(C1)OC(N)=C(C#N)C2c1ccc(OC(=O)N2CCOCC2)cc1 (stereo not drawn)	-0.0642
CN(C(=O)COC(=O)CNC(=O)C12CC3CC(CC(C3)C1)C2)C1CCS(=O)(=O)C1 (stereo not drawn)	-0.182
CCOC(=O)c1c(C)nc2c(c1-c1ccc(OC)cc1)C(=O)CC(C)(C)C2	-0.379
Cc1cc(Cl)c(S(=O)(=O)Nc2ccc3c(c2)OCO3)cc1OCC(=O)NC1CCCCC1	-0.417
Cc1cc(S(=O)(=O)n2cnc3ccccc32)c(C)cc1Cl	-0.163
COc1cc(NC(=O)c2cccs2)c(C(=O)OCC(=O)c2cc(C)n(-c3ccc(F)cc3)c2C)cc1OC	-0.037

Compound	z-score
Cc1ccnc(NS(=O)(=O)c2ccc(Oc3ccccc3)cc2)c1	-0.165
CC1Cc2ccccc2N1C(=O)CN1C(=O)NC(C)(c2ccc3c(c2)OCCO3)C1=O (stereo not drawn)	-0.178
CC1CCc2c(sc(NC(=O)c3ccc(Cn4cc(Br)cn4)o3)c2C(N)=O)C1 (stereo not drawn)	-0.188
O=C(CSc1nnc(Cc2ccc3c(c2)OCO3)n1C1CCCCC1)NC1CCCC1	-0.316
CN(Cc1ccccc1)C(=O)CNC(=O)Cn1cnc2ccccc2c1=O	-0.137
O=C(Nc1ccc(NC(=O)C2CC2)nc1)c1ccccn1	-1.64
CCOC(=O)N1CCC(N2C(=O)c3ccc(C(=O)NCc4ccco4)cc3C2=O)CC1	-0.36
CCc1c(C)nc2ncnn2c1NCCc1ccccc1	-0.282
CCCSc1nc(C)c2cc(C)cc(C)c2n1	-0.0794
Cc1nc2c(oc3ccccc32)c(=O)o1	0.481
CS(=O)(=O)N(CC(=O)NCCSc1ccccc1)c1ccc2c(c1)OCO2	1.46
COc1ccccc1-c1nnc(NC(=O)C2=COCCO2)o1	0.276
COC(=O)c1cc2ccccc2c(=O)s1	-0.511
CC(C)(C)N=C1SCC(C)(/C=N/O)S1 (stereo not drawn)	0.201
O=C(CSc1nnc(-c2c[nH]c3ccccc23)n1-c1ccc(F)cc1)NCc1ccco1	active: -3.61
O=C1CCCN1CCC1CCN(C(=O)Nc2ccccc2)CC1	-0.102
CCOC(=O)c1ccc(-n2ncc(C(=O)OCC)c2N)cc1	-0.121
Cc1ccc(NC(=S)NCc2cccn2C)cc1	0.349
S=C(NCc1ccc(Cl)cc1Cl)Nc1ccccc1	active: 3.34
CNC(=O)c1nn(-c2ccc(Cl)cc2)ccc1=O	-0.0128
COc1ccc(NC(=O)CN2CCN(CC(=O)Nc3ccccc3Cl)CC2)cc1Cl	-1.41
CCCN1C(=O)SC(CC(=O)Nc2cccc3ccccc23)C1=O (stereo not drawn)	0.304

Compound	z-score
CCN(CC)C(=O)Cn1nc(C)c2ccccc2c1=O	-0.346
CCNC(=O)CSc1nnc(-c2ccccc2Br)n1-c1cccc(C(F)(F)F)c1	-0.376
CCOC(=O)c1cnc2ccc(C)cc2c1Sc1ccccc1C(=O)OC	-0.78
CCCCNC(=S)NNC(=O)C12CC3CC(CC(C3)C1)C2	-0.391
CC1=C(C(=O)OC(C)C)C(c2cccnc2)C2=C(CC(C)(C)CC2=O)N1 (stereo not drawn)	-0.185
O=C(NCC1CCCO1)C1CCC(CNS(=O)(=O)c2ccccc2)CC1 (stereo not drawn)	-0.111
CN(C)C(=O)/C(=C\c1cccc(Oc2ccccc2)c1)NC(=O)c1ccccc1	0.438
CCOC(=O)C1C(=O)NC(c2ccccc2)=NC1c1ccccc1 (stereo not drawn)	-0.0399
COc1ccc(-n2nnnc2SCC(=O)NCCc2ccc(OC)c(OC)c2)cc1	0.0743
COc1cc(/C=C2\S/C(=N/S(=O)(=O)c3ccc(C)cc3)NC2=O)c([N+](=O)[O-])cc1OC	active: -4
CCOC(=O)c1ccc(S(=O)(=O)N2CCN(C)CC2)cc1	-0.0673
Cc1ccc(OC(C)C)c(CN(CCO)CCO)c1	-0.396
CCOc1ccc(CCNC(=O)CCN2C(=O)COc3ccccc32)cc1OCC	-0.467
COc1cnn(-c2ccccc2)c(=O)c1N(C)C	-0.0974
O=C(Nc1ccc2c(c1)OCO2)c1ccc(N2C(=O)c3ccccc3C2=O)cc1	-0.161
O=C(CSc1nnc(-c2cccnc2)n1-c1ccccc1)Nc1ccccn1	-0.00451
Cc1ccc(Nc2nnc(SCc3cc(=O)n4cc(C)ccc4n3)s2)cc1	-1.62
Cc1cc2c3c(ccc(C)c3n1)N=CN2c1ccccc1	-1.13
CCC(C(=O)Nc1ncn[nH]1)(C(F)(F)F)C(F)(F)F	0.801
Cc1ccc(C)c(N2CCN(CCCNC(=O)Cn3cc4c(n3)CCC(C)C4)CC2)c1 (stereo not drawn)	1.12
